Measurements as given in publication PMC12102759.

B1: CBL peptide 538-553 (E3 ubiquitin-protein ligase CBL), 16-mer library wild type / YES SH3 (YES1 SH3 domain, residues 90-152) (parent)
chain 1: TLRDLPPPPPPDRPYS
chain 2: TGGVTIFVALYDYEARTTEDLSFKKGERFQIINNTEGDWWEARSIATGKNGYIPSNYVAPADS

Variants of: B1
Test: proteomic peptide phage display deep mutational scan (ProP-PD DMS): M13 P8 16-mer library selected against immobilised GST-tagged bait for four days (rounds), NGS of the eluted pools per day and pseudo-replica
Settings: with YES SH3 (YES1 SH3 domain, residues 90-152); bait immobilised on MaxiSorp plates (10 µg), library pre-cleared on GST, 2 h binding at 4 °C, five washes; one round per day, days 1-4; value from days 2 and 3; keep out of graded; scale: average fractional NGS count over selection days 2 and 3

Row | screen value | Variant
1 | 2.27e-05 | chain 1 R3Q
2 | 0 | chain 1 P14R
3 | 3.6e-05 | chain 1 P14K
4 | 5.37e-05 | chain 1 P14N
5 | 0 | chain 1 R13D
6 | 3.27e-05 | chain 1 P10K
7 | 8.48e-05 | chain 1 P10G
8 | 4.16e-05 | chain 1 Y15P
9 | 4.71e-05 | chain 1 Y15D
10 | 1.56e-05 | chain 1 S16N
11 | 0 | chain 1 P9G
12 | 0 | chain 1 P9E
13 | 9.84e-06 | chain 1 P9W
14 | 2.35e-05 | chain 1 P9M
15 | 3.7e-05 | chain 1 P9Y
16 | 1.57e-05 | chain 1 P9D
17 | 8.17e-06 | chain 1 P8W

Second part, the variant before the results:

Row | Variant | screen value
18 | chain 1 L2S | 7.5e-05
19 | chain 1 P7W | 3.04e-05
20 | chain 1 P7D | 4.52e-05
21 | chain 1 P7R | 3.48e-05
22 | chain 1 P8S | 6.56e-06
23 | chain 1 P8H | 2.11e-05
24 | chain 1 P8R | 1.64e-05
25 | chain 1 P8Q | 1.71e-05
26 | chain 1 L5K | 2.53e-05
27 | chain 1 L5N | 2.47e-05
28 | chain 1 L5T | 2.68e-05
29 | chain 1 L5A | 7.44e-05
30 | chain 1 L5E | 0
31 | chain 1 L5S | 0
32 | chain 1 L5R | 1.9e-05
33 | chain 1 P6V | 3.4e-05
34 | chain 1 P6D | 0
35 | chain 1 P6F | 0
36 | chain 1 P6K | 3.1e-05
37 | chain 1 P6Q | 4.77e-05
38 | chain 1 P6E | 0
39 | chain 1 P6R | 3.94e-05
40 | chain 1 P6I | 4.35e-05
41 | chain 1 P6Y | 2.33e-05
42 | chain 1 P6L | 4.11e-05
43 | chain 1 P6T | 1.18e-05
44 | chain 1 P6G | 5.34e-05
45 | chain 1 P6A | 1.8e-05
